Several values for one entry are separate records, joined by “and”; a condition that tells them apart may be missing. Identical values can stand only once. Counter-ions that a name gives are not always drawn. ± gives the standard deviation of the averaged measurements. In all, about 3,200 compounds were measured (“nuclei count (viability) relative to DMSO”: median about 99, lowest 2% from about 16 on). This is one part of the list.
Tested on: U2OS
Experiment: nuclei count (viability) relative to DMSO (% of DMSO); higher = more viable cells
Conditions: 10 µM; 24 h
Procedure: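 Primary image-based screen in U2OS cells: compounds at 10 uM for 24 h, then a 1 h o-propargyl-puromycin (OPP) pulse, click labelling, and high-throughput microscopy. Mean cytoplasmic OPP intensity and nuclei count were normalised to DMSO wells within each plate (DMSO = 100) and averaged over triplicate plates.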

Compound | nuclei count
Cc1cc(Nc2ncc(Cl)c(Nc3ccccc3S(=O)(=O)C(C)C)n2)c(OC(C)C)cc1C1CCNCC1 [Ceritinib (LDK378)] | 14.7
COCCCOc1ccnc(C[S+]([O-])c2nc3ccccc3[nH]2)c1C (stereo unspecified) [Rabeprazole Sodium salt] | 105
C[C@@H](Oc1cc(-c2cnn(C3CCNCC3)c2)cnc1N)c1c(Cl)ccc(F)c1Cl | 39.6
O=C(CCCCC(=O)Nc1c(I)cc(I)c(C(=O)O)c1I)Nc1c(I)cc(I)c(C(=O)O)c1I [Iodipamide] | 108
CC(C)C1C2CCC(C2)C1N (stereo unspecified) | 104
CO[C@@H]1[C@H](O)[C@@H](CO)O[C@H]1n1cnc2c(NC3CCCCC3)ncnc21 | 102
CNCC[C@@H](Oc1ccccc1C)c1ccccc1 [Tomoxetine hydrochloride] | 102 ± 3.3
C[C@@H]1O[C@@H](O[C@H]2[C@H](Oc3cc(O)c4c(c3)O[C@H](c3ccc(O)cc3)CC4=O)O[C@H](CO)[C@@H](O)[C@@H]2O)[C@H](O)[C@H](O)[C@H]1O [Naringin (Naringoside)] | 118
Cn1cc(C2=C(c3cn(CCCSC(=N)N)c4ccccc34)C(=O)NC2=O)c2ccccc21 [Ro 31-8220 Mesylate] | 29.7
Cn1cc(C2=C(c3cn(CCCSC(=N)N)c4ccccc34)C(=O)NC2=O)c2ccccc21 [Ro 31-8220 mesylate] | 10.6
Nc1ccccc1NC(=O)CCCCCCC(=O)Nc1ccccc1 | 84.1
N[C@@H](CC(=O)N1CCn2c(nnc2C(F)(F)F)C1)Cc1cc(F)c(F)cc1F [Sitagliptin phosphate monohydrate] | 101
Cn1cc(/C=C/C(=O)c2cccc(F)c2)cc1/C=C/C(=O)NO | 92.3
N=C(N=C(N)N)N1CCOCC1 [Moroxidine hydrochloride] | 102
CC(=O)OCC(=O)[C@@]12OC3(CCCC3)O[C@@H]1C[C@H]1[C@@H]3CCC4=CC(=O)C=C[C@]4(C)[C@@]3(F)[C@@H](O)C[C@@]12C [Amcinonide] | 105
COc1nc(C)cnc1NS(=O)(=O)c1cccnc1-c1ccc(-c2nnco2)cc1 [Zibotentan (ZD4054)] | 107
CC(=O)Nc1ccc(OCC(O)CNC(C)C)cc1 (stereo unspecified) [Practolol] | 104
CO/N=C(\C(=O)N[C@@H]1C(=O)N2C(C(=O)O)=C(CSC(=O)c3ccco3)CS[C@H]12)c1csc(N)n1 [Ceftiofur HCl] | 102
N[C@@H]1CCN(O)C1=O | 106
CN1[C@@H]2CC[C@H]1C[C@@H](OC(c1ccccc1)c1ccccc1)C2 [Benztropine mesylate] | 107 ± 5.7
O=C1NN(C(=O)Nc2ccc(Br)cc2)[C@@H](c2ccccc2)[C@@H]1c1ccccc1 | 94.8
C[C@@H]1O[C@@H](OC[C@H]2O[C@@H](Oc3c(-c4ccc(O)c(O)c4)oc4cc(O)cc(O)c4c3=O)[C@H](O)[C@@H](O)[C@@H]2O)[C@H](O)[C@H](O)[C@H]1O [Rutin (Rutoside)] | 102
COc1ccnc2[nH]cc(C(=O)C(=O)N3CCN(C(=O)c4ccccc4)C[C@H]3C)c12 | 98.8
CCCC(=O)Nc1ccc(OCC(O)CNC(C)C)c(C(C)=O)c1 (stereo unspecified) [Acebutolol hydrochloride] | 90.8
CC(C)(C)OC(=O)N[C@H]1CCCCC/C=C\[C@@H]2C[C@@]2(C(=O)NS(=O)(=O)C2CC2)NC(=O)[C@@H]2C[C@@H](OC(=O)N3Cc4cccc(F)c4C3)CN2C1=O [Danoprevir] | 100
CC1(C)C(=O)N(CCN2CCC(C(=O)c3ccc(F)cc3)CC2)c2ccccc21 | 97.8

Compound | nuclei count
NC(=O)Nc1sc(-c2ccc(F)cc2)cc1C(N)=O | 47 ± 0.38
CCN(CC)CC1CCCCN1CC(=O)N1c2ccccc2C(=O)Nc2cccnc21 (stereo unspecified) | 95.9
C[C@H](CCC(=O)O)[C@H]1CC[C@H]2[C@@H]3C[C@H](O)[C@@H]4C[C@H](O)CC[C@]4(C)[C@H]3CC[C@]12C [Hyodeoxycholic acid (HDCA)] | 104
O=C(Nc1ccccc1)OCC(CN1CCCCC1)OC(=O)Nc1ccccc1 (stereo unspecified) [Diperodon hydrochloride] | 101
CCN1CCN(c2ccc(Nc3cc(N(C)C(=O)Nc4c(Cl)c(OC)cc(OC)c4Cl)ncn3)cc2)CC1 | 96.4
Nc1nc(=O)[nH]cc1F [Flucytosine] | 105
Clc1cc(Cl)c(OCC#CI)cc1Cl [Haloprogin] | 35.9
Oc1cc(O)cc(/C=C/c2ccc(O)c(O)c2)c1 [Piceatannol] | 90.6 ± 9.5
Cc1cc(Nc2cc(CN3CCOCC3)c3nc(C)c(Cc4ccc(Cl)cc4F)n3n2)n[nH]1 | 42.8
Nc1nnc(-c2cccc(Cl)c2Cl)c(N)n1 [Lamotrigine] | 105
CC[C@@]1(O)C(=O)OCc2c1cc1n(c2=O)Cc2cc3c(CN(C)C)c(O)ccc3nc2-1 [Topotecan] | 45.7
O=C1c2ccccc2-c2nc3nonc3nc21 | 44
CCCCCS(=O)(=O)CCCCCCCCCCn1c(-c2ccc(O)cc2)c(C)c2cc(O)ccc21 | 105
NC(C(=O)O)c1ccc(C(=O)O)c(C(=O)O)c1 (racemic) | 102 and 111
C=C1[C@H](CO)[C@@H](O)C[C@@H]1n1cnc2c(=O)[nH]c(N)nc21 [Entecavir hydrate] | 101
CC(=O)O[C@]1(C(C)=O)CC[C@H]2[C@@H]3C=C(C)C4=CC(=O)CC[C@]4(C)[C@H]3CC[C@@]21C [Megestrol Acetate] | 108
CC(=O)O[C@]1(C(C)=O)CC[C@H]2[C@@H]3C=C(C)C4=CC(=O)CC[C@]4(C)[C@H]3CC[C@@]21C [Megestrol acetate] | 106
Cc1cccc(C)c1NC(=O)CN1CCN(CCCC(c2ccc(F)cc2)c2ccc(F)cc2)CC1 [Lidoflazine] | 103
CCCC(=O)Nc1cccc(NC(=O)c2ccccc2Br)c1 | 101
CO[C@H]1C[C@@H]2CC[C@@H](C)[C@@](O)(O2)C(=O)C(=O)N2CCCC[C@H]2C(=O)O[C@H]([C@H](C)C[C@@H]2CC[C@H](n3cnnn3)[C@H](OC)C2)CC(=O)[C@H](C)/C=C(\C)[C@@H](O)[C@@H](OC)C(=O)[C@H](C)C[C@H](C)/C=C/C=C/C=C/1C [Zotarolimus (ABT-578)] | 84.3
O=C(c1ccc(Cl)cc1Cl)n1nnc2ccccc21 | 83.2
COc1cc2ncnc(Nc3ccc(O)c(Br)c3)c2cc1OC | 98.3 ± 5.4
O=C(O)c1ccc(O)c2ncccc12 | 99.5
O=C1c2ccccc2CCC1CNCCc1ccc(O)cc1 (stereo unspecified) [HEAT hydrochloride] | 76.6
CC(C)(C)OC(=O)Nc1ccc(-c2cc(C(=O)NCCCCCCC(=O)NO)no2)cc1 | 31
Cc1nc(C)c(C)nc1C [Tetramethylpyrazine] | 101

Compound | nuclei count
Nc1nc(Nc2ccccc2)nc2c1ncn2[C@@H]1O[C@H](CO)[C@@H](O)[C@H]1O | 101
O=C(OCCN1CCCCC1)c1c[nH]c2ccccc12 | 102
Cc1cccc(C)c1NC(=O)C[N+](C)(C)C | 106
CC(C)(C)NCC(O)COc1cccc2c1CC(O)C(O)C2 (stereo unspecified) [Nadolol] | 97
Cc1ccc(S(=O)(=O)/C=C/C#N)cc1 | 32.5
C[C@H](CCC(=O)NCCS(=O)(=O)O)[C@H]1CC[C@H]2[C@@H]3[C@H](O)C[C@@H]4C[C@H](O)CC[C@]4(C)[C@H]3C[C@H](O)[C@]12C [Taurocholic acid] | 101
Nc1ccccc1NC(=O)c1ccc(CNc2nccc(-c3cccnc3)n2)cc1 [Mocetinostat (MGCD0103)] | 39.2
Cc1cccn2c(=O)c(-c3nnn[nH]3)cnc12 [Pemirolast potassium] | 104
CC[C@H](C)C(=O)O[C@H]1C[C@H](O)C=C2C=C[C@H](C)[C@H](CC[C@@H](O)C[C@@H](O)CC(=O)O)[C@H]21 [Pravastatin sodium] | 102
CC[C@H](C)C(=O)O[C@H]1C[C@H](O)C=C2C=C[C@H](C)[C@H](CC[C@@H](O)C[C@@H](O)CC(=O)O)[C@H]21 [Pravastatin] | 101
CC[C@H](C)C(=O)O[C@H]1C[C@H](O)C=C2C=C[C@H](C)[C@H](CC[C@@H](O)C[C@@H](O)CC(=O)O)[C@H]21 [Pravastatin sodium salt] | 104
CC1=C(C(=O)O)N2C(=O)[C@@H](NC(=O)[C@H](N)c3ccccc3)[C@H]2SC1 [Cephalexin (Cefalexin)] | 103
O=C1CC2(CCCC2)CC(=O)N1CCCCNCC1COc2ccccc2O1 (stereo unspecified) | 105
CCCc1c(OCCCOc2ccc(OCC(=O)O)cc2)ccc(C(C)=O)c1O | 108
CC1(C)CC(=O)C(C2C3=C(CC(C)(C)CC3=O)Oc3ccccc32)C(=O)C1 (stereo unspecified) | 89
O=S(=O)(c1cccc2c(Cl)cccc12)N1CCCNCC1 [ML 9 hydrochloride] | 95.7
CCOCCn1c(N2CCCN(C)CC2)nc2ccccc21 [Emedastine] | 98.8
CN1CC(=O)N=C1NC(=O)Nc1cccc(Cl)c1 [Fenobam] | 98.4
COc1cc(C2Oc3ccc(C4Oc5cc(O)cc(O)c5C(=O)C4O)cc3OC2CO)ccc1O (stereo unspecified) [Silymarin (Silybin B)] | 108
COc1ccc2c(c1)c(CC(=O)OCC(=O)O)c(C)n2C(=O)c1ccc(Cl)cc1 [Acemetacin] | 95.7
O=C1C(O)=C(O)C(=O)C(O)=C1O [Tetrahydroxy-1,4-quinone monohydrate] | 106
Cc1nccn1CC1CCc2c(c3ccccc3n2C)C1=O (stereo unspecified) [Ondansetron Hydrochloride] | 97
CC(=O)NC[C@H]1CN(c2ccc(N3CCOCC3)c(F)c2)C(=O)O1 [Linezolid] | 101
Cn1sc(=O)n(Cc2ccccc2)c1=O | 84.3

Source: the supplement of paper PMC8183993
